Over roughly 1,800 sequences, “median log2 fold change of GCK-ALFA target abundance (FLAG IP / Myc IP barcode read proportion)” has its median near 0.14; the lowest 2% begin near -0.84. This is one part of the list.
T1: TRAF2, Q12933
T1 chain: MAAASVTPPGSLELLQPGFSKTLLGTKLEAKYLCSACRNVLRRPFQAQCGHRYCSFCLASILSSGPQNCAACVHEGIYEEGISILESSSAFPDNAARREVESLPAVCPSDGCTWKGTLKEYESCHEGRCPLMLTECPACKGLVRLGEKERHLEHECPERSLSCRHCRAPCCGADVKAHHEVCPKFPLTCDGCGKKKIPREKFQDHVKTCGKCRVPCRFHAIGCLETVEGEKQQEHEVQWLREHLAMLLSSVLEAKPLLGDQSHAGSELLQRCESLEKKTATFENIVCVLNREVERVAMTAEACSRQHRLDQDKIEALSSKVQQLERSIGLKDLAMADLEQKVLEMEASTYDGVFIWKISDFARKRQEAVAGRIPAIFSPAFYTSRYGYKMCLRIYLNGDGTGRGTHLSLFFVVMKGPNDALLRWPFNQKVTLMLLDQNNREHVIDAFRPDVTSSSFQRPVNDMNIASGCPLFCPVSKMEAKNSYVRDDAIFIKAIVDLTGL

B1: traf2_out_9_108_2580 (protein)
chain: MTEEEKLEEKFKAILKLVEEFKKTVKLTPEQRESLEAAIKQAKELYEKGEKREAIVLLAIDLARIASEVGEEVTKELLEKLAEIDPIAASAAERMAKLLR
B2: traf2_out_8_144_2543 (protein)
chain: HMSRRELANRATNILVRLDELIKEADEETKEILTKARRHVGQALNLIVFDGPREEILEELEKAAKYLKEAIEKVKDNPELKEKVEKALEEVKEIIKNVKE
B3: traf2_out_19_16_1987 (protein)
chain: SMEEAEKLKKEMEEYLDKALKLAKEAVENIDKLSREELMDKLVEISELIRKAREKLQEYLKLAKDNPELRKEVTEKFDEKLDEIQKLMTKIVNKILELRK
B4: traf2_out_13_95_1228 (protein)
chain: SEETNEELRKISNDMLDKAEAVIDALEAQLAPHPELQPLMDEIRHALNNYGITAAIAKLREAAARFPEVRELLLAAAAELEAIRREAGKKVAEVLKKEEE
B5: traf2_out_16_177_1455 (protein)
chain: ELAKVMDRLVILSYIKRAALKIVEDNSPEAEEYLKEAREEAEAAGDEEGLKRIDEVEELAAENTPEAKERLKKLAEEAQREAQRLADEAERLIKERAEAE
B6: traf2_out_17_162_1552 (protein)
chain: SELEERWEELKRRLEELRKELEELKKELENLDKMSKEELTDLLVRASEARREARRLAEELRRLAPELGEEEAGRLRDEAERIAEELQRIANKIYEEILKK
B7: traf2_out_17_162_1533 (protein)
chain: SATDAELAALKKELEALEKELKKLEEKLKKLDELSKEEISDLLVEASELKRRALELAERLRKLAAETGSPEAKALAERAEAVAERLQRIANKIYKKLEEK
B8: traf2_out_16_177_1458 (protein)
chain: ELDRVMDRLVILSLIRRAALEIVRSNSPEAERYLAEARAEAEAAGDEEGLARIARIEELAAQNTPEARAELRALAAEAQREAQRLANEAERLIRERAAAE

Biological target: T1, TRAF2, Q12933
Assay: median log2 fold change of GCK-ALFA target abundance (FLAG IP / Myc IP barcode read proportion) (log2 ratio); each designed protein is fused to an ALFA-tag nanobody in HEK293 cells to bring the named protein to FLAG-tagged glucokinase (GCK); Myc marks an untargeted standard; higher = target protein stabilised (more abundant)
Conditions: target protein: 3xFLAG-MCP-GCK-ALFA reporter; HEK293 landing pad (RPLP)
Outline: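 HEK293 landing-pad cells received a recombined binder library fused to the ALFA nanobody and were induced with 2 μg mL^−1 doxycycline, then transfected with a plasmid encoding a FLAG-tagged target and a Myc-tagged standard. Lysates were collected after 48 h for anti-FLAG and anti-Myc immunoprecipitation, and the circular RNA barcodes were reverse transcribed, amplified and sequenced. Target abundance for each binder is the median log2 ratio of FLAG to Myc barcode read proportions. Barcodes had to reach a proportion of at least 10^−7 in both replicates, each binder needed at least 3 barcodes per replicate, a pseudocount of 10^−6 was applied, and the two replicates were pooled.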

Binder | median log2 fold change
B1 | 0.0407
B2 | 0.238
B3 | -0.716
B4 | 0.105
B5 | 0.194
B6 | 0.324
B7 | 0.192
B8 | -0.327
